Measured values taken from paper PMC3936774 (Nucleic Acids Research, 2013).

B1: Escherichia coli Hfq F11W, C-terminally truncated core ([…]) (domain or fragment)
chain: not shown
B2: Escherichia coli Hfq Y25W, C-terminally truncated core ([…]) (domain or fragment)
chain: not shown
B3: Escherichia coli Hfq F39W, C-terminally truncated core ([…]) (domain or fragment)
chain: not shown
B4: Escherichia coli Hfq F42W, C-terminally truncated core ([…]) (domain or fragment)
chain: not shown

Molecular target: the molecule itself
Assay: crystal structure

Row | Protein | stoichiometry N
1 | B1 | 6
2 | B2 | 6
3 | B3 | 6
4 | B4 | 6
